Experimental data as given in PubChem BioAssay AID1963576 (National Center for Advancing Translational Sciences (NCATS), 2024).
About 60 (0.1%) of roughly 46,000 compounds were called active. Inconclusive means that the source gave no clear call. Such entries were picked first, then a sample of the others. Calls come from the whole dose curve; as a rule, active = well fitted inhibition curve with a large enough effect; inconclusive = small, poorly fitted or top-dose-only effect; inactive = no such curve, though single readings can be large or run the other way. No potency is given beside an inconclusive call; the fits are too rough.
Potency is the fitted concentration of half-maximal effect; tags give direction and shape of the fitted curve.

Experiment: Primary qHTS assay for Inhibitors of ovarian cancer metastasis using an organotypic tumor microenvironment (TME) model.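 For potency: count of GFP cancer cells still attached after washing and fixation.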 Note: nearly all actives have a fitted effect of over 65% in size.
Conditions: SKOV3ip1-GFP adhesion/invasion on 3D omental model, fluorescence; series mostly up to 45.8 µM
Summary of the method: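 Primary human omental fibroblast/mesothelial 3D culture pre-formed 48 h. SKOV3ip1-GFP cells added with compounds (0.36-46 umol/L), incubated 2 h RT/16 h 37 C, fixed; GFP cells quantified at 488/509 nm.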
In the case of `CCc1ccc(OCC(=O)Nc2ccc(-c3nc4ncccc4o3)cc2)cc1`, the Potency is reported as inconclusive [inhibitor, single point]. For `Cc1ccc(N2CCN(C(=O)c3cc(S(=O)(=O)N4CCCCC4)c[nH]3)CC2)c(C)c1`, the Potency was inconclusive [inhibitor, single point]. With `O=C(NCCN1CCCCC1)c1ccc(Cn2c(SCc3cccc(F)c3)nc3cccnc32)cc1` the Potency was inconclusive [inhibitor, single point]. With `COc1ccc(OCC(=O)Nc2ccccc2C(=O)OCc2cc(=O)n3nc(C)sc3n2)cc1` the Potency was “inactive”. With `CC(=O)c1ccc(N2CCN(c3ncnc4onc(C)c34)CC2)cc1` the Potency was “inactive”. For `Cc1cccc(OCC(O)Cn2c(=N)n(CCN3CCCCC3)c3ccccc32)c1` (stereo unspecified), the Potency was inconclusive [inhibitor, single point]. In the case of `COC(=O)c1cccc(NC(=O)c2nsc3ccccc23)c1`, the Potency is reported as inconclusive [inhibitor, single point]. In the case of `COc1ccc(-n2c(-c3ccc(C)cc3)cc3c2CC(C)(C)CC3=O)c(OC)c1`, the Potency is reported as inconclusive [inhibitor, single point]. For `O=c1oc2cc(O)ccc2cc1-c1nnc(Nc2ccccc2F)s1`, the Potency was inconclusive [inhibitor, full curve, poor fit]. With `O=C(CSc1nc(-c2ccc(F)cc2)[nH]c1-c1ccccc1)Nc1ccccc1` the Potency was “inactive”. In the case of `COc1ccc(C(=O)Nc2ccc3nc4c(c(Nc5ccc(OC)c(OC)c5)c3c2)CCCC4)c(OC)c1`, the Potency is reported as inconclusive [inhibitor, single point]. For `CN(Cc1ccccc1)c1nnc(NC(=O)Nc2cccc(Br)c2)s1`, the Potency was inconclusive [inhibitor, single point]. With `Cc1cc(N2CCN(C)CC2)nc2ccc(NC(=O)c3ccc(C(C)(C)C)cc3)cc12` the Potency was inconclusive [inhibitor, single point]. In the case of `Cc1ccccc1CN1C(=O)c2ccccc2Sc2ccc(C(=O)NC3CCCCC3)cc21`, the Potency is reported as inconclusive [inhibitor, single point]. In the case of `COc1ccccc1C(=O)N(Cc1nc(-c2cccc(C)c2)no1)C(C)C`, the Potency is reported as “inactive”. For `O=C(NCc1ccccc1)c1nc(S(=O)(=O)Cc2ccc(F)cc2)ncc1Cl`, the Potency was inconclusive [inhibitor, full curve, poor fit]. With `COc1ccc(NC(=O)CN(C)S(=O)(=O)c2ccc3[nH]c4c(c3c2)CCCC4)cc1OC` the Potency was “inactive”. For `O=C(Nc1ccc2oc(-c3cccnc3)nc2c1)c1ccc(-c2cccc(OC(F)(F)F)c2)o1`, the Potency was inconclusive [inhibitor, partial curve]. In the case of `O=C(Nc1ccc2oc(-c3ccc4ccccc4c3)nc2c1)c1cc(Br)ccc1Cl`, the Potency is reported as inconclusive [inhibitor, partial curve, poor fit]. For `Cc1cc(N2CCN(C)CC2)nc2ccc(NC(=O)Nc3ccccc3)cc12`, the Potency was “inactive”. For `CCc1ccc(-c2cc(C)no2)cc1S(=O)(=O)N1CCN(c2cccc(Cl)c2)CC1`, the Potency was inconclusive [inhibitor, single point]. For `Cc1ccsc1CN(C(=O)COc1ccc(Cl)cc1)C1CCS(=O)(=O)C1` (stereo unspecified), the Potency was inconclusive [inhibitor, single point]. In the case of `CCOc1cc(C(=O)Nc2ccc(NC(=O)c3cc4ccccc4o3)c(OC)c2)cc(OCC)c1OCC`, the Potency is reported as inconclusive [inhibitor, single point]. With `COc1cccc(C(=O)Nc2cccc(-c3nc4ncccn4c3C)c2)c1` the Potency was “inactive”. In the case of `Cc1cc(C)cc(NC(=O)C2CCCN2S(=O)(=O)c2ccc3nc(-c4ccccc4)[nH]c3c2)c1` (stereo unspecified), the Potency is reported as inconclusive [inhibitor, partial curve, poor fit]. For `COC(=O)c1sc(-c2ccccc2)cc1NC(=O)Nc1ccc(F)cc1`, the Potency was inconclusive [inhibitor, single point]. In the case of `Cc1cccc(-n2c3nc(=O)n(C)c(=O)c-3cc3c(Cl)cccc32)c1C`, the Potency is reported as inconclusive [inhibitor, single point]. With `Cc1cccn2c(=O)cc(COc3cccc(NC(=O)c4ccccc4F)c3)nc12` the Potency was inconclusive [inhibitor, single point]. In the case of `Cc1ccc(-c2nc(SCC(=O)NCC3CCCO3)c(-c3ccc(C)cc3)[nH]2)cc1` (stereo unspecified), the Potency is reported as inconclusive [inhibitor, single point]. With `CCN(CC)c1nn2c(=O)c(C(=O)NCCc3ccc(C)cc3)cnc2s1` the Potency was inconclusive [inhibitor, single point]. In the case of `CCOc1ccc(S(=O)(=O)NCCc2csc(-c3ccc(Cl)cc3)n2)cc1`, the Potency is reported as “inactive”. In the case of `C=C(C)Cn1c(SCC(=O)Nc2ccccc2C)nc2sc3c(c2c1=O)CCCC3`, the Potency is reported as inconclusive [inhibitor, single point]. With `CC(C)Cn1c(=O)c2ccccc2n2c(CCC(=O)N3CCN(c4cccc(Cl)c4)CC3)nnc12` the Potency was “inactive”. For `CCN(CC)C(=O)CSc1nnc2ccc3ccccc3n12`, the Potency was inconclusive [inhibitor, partial curve, poor fit]. In the case of `CNC(=O)Nc1ccc(-c2nc(N3CC4CCC(C3)O4)c3cnn(C4CCC5(CC4)OCCO5)c3n2)cc1`, the Potency is reported as inconclusive [inhibitor, single point]. In the case of `CC1CCN(c2nc3ccc(C(=O)NC(C)C)cc3s2)CC1`, the Potency is reported as “inactive”. For `COc1ccc(OCC(O)Cn2c(=N)n(CCN3CCCCC3)c3ccccc32)cc1` (stereo unspecified), the Potency was inconclusive [inhibitor, partial curve, poor fit]. For `COc1ccc(NC(=O)CSc2nc3ccccc3nc2N2CCCCC2)cc1`, the Potency was “inactive”. In the case of `CC(=O)N1CCOc2cc(S(=O)(=O)NCc3ccccc3Cl)c(Cl)cc21`, the Potency is reported as inconclusive [inhibitor, full curve, poor fit]. With `COc1cc(-n2c(=O)c3ccccc3n(Cc3cccc(Cl)c3)c2=O)cc(OC)c1OC` the Potency was “inactive”. For `CCc1ccccc1NC(=O)c1ccc2c(c1)CCCN2S(C)(=O)=O`, the Potency was inconclusive [inhibitor, single point]. For `CCOc1ccc(/C=C/C(=O)Nc2ccc3nc(N(CC)CC)cc(C)c3c2)cc1OC`, the Potency was inconclusive [inhibitor, single point]. With `Cc1ccc(CS(=O)(=O)c2ncc(Cl)c(C(=O)Nc3nnc(C(C)C)s3)n2)cc1` the Potency was inconclusive [inhibitor, full curve, poor fit]. For `O=C1c2[nH]nc(-c3ccc(F)cc3)c2C(c2ccccc2F)N1c1ccccc1` (stereo unspecified), the Potency was inconclusive [inhibitor, single point]. In the case of `COC(=O)c1cc2sccc2n1CC(=O)Nc1cc(Cl)ccc1OC`, the Potency is reported as “inactive”. For `CCOc1ccccc1CNC(=O)c1oc2ccc3c(c2c1C)C(=O)CC(C)(C)O3`, the Potency was “inactive”. In the case of `CCN(CC)S(=O)(=O)c1ccc(N2CCCCS2(=O)=O)cc1`, the Potency is reported as inconclusive [inhibitor, single point]. With `Oc1c(C(c2ccccc2F)N2CCCC2)sc2nc(-c3ccco3)nn12` (stereo unspecified) the Potency was “inactive”. With `CCCC1=Nc2cc(C(=O)NCCOC)ccc2Sc2ccccc21` the Potency was “inactive”. With `O=C(Cn1c(=O)oc2cc(S(=O)(=O)N3CCCCC3)ccc21)NCc1ccc(F)cc1` the Potency was “inactive”. For `O=C(Cn1c(-c2cccs2)cc2cc(F)ccc21)NCCCN1CCN(c2ccc(F)cc2)CC1`, the Potency was “inactive”. For `Cc1ccc2nc(Cl)c3cc(C(=O)NCCCN(C)Cc4ccccc4)sc3c2c1`, the Potency was inconclusive [inhibitor, single point]. For `CC(C)(C)CC(C)(C)c1ccc(OCC(=O)Nc2ccc(S(=O)(=O)Nc3ncccn3)cc2)cc1`, the Potency was “inactive”. For `CCOC(=O)C1=C[C@]2(CC)CCCN3CCc4c(n1c1ccccc41)[C@@H]32`, the Potency was inconclusive [inhibitor, single point]. With `Cc1ccc(N2CCN(C(=O)c3cnn(-c4ccc(C)c(C)c4)c3C3CCNCC3)CC2)c(C)c1` the Potency was inconclusive [inhibitor, partial curve, poor fit]. For `CC(=O)c1ccc(NS(=O)(=O)c2cc(-c3cnc(C4CC4)o3)ccc2C)cc1`, the Potency was “inactive”. With `Cc1ccc(-c2cn3c(n2)sc2cc(C(=O)NCCCN4CCCCC4)ccc23)cc1` the Potency was active: 8.91 µM. In the case of `O=C(c1ccc(C(F)(F)F)cc1)N1CCC(c2nc(-c3ccc(S(=O)(=O)N4CCCC4)cc3)no2)CC1`, the Potency is reported as “inactive”. For `CC1=C(c2ccc(C)c(C)c2)S(=O)(=O)N=C1N1CCC(C(=O)NCCc2ccc(Cl)cc2)CC1`, the Potency was inconclusive [inhibitor, single point]. For `CCCCN1CC(c2nc3ccccc3n2CCCCOc2ccc(C)cc2C)CC1=O` (stereo unspecified), the Potency was inconclusive [inhibitor, single point]. For `Cc1cccc(NC(=O)Nc2ccc(F)cc2)n1`, the Potency was “inactive”. With `Cc1ccc(N(CC(=O)NCCc2ccccc2C)S(=O)(=O)N(C)C)cc1` the Potency was inconclusive [inhibitor, single point]. With `CCOC(=O)c1c(C)n(-c2ccccc2)c2ccc(OC(=O)c3ccccc3NC(=O)C(C)C)cc12` the Potency was inconclusive [inhibitor, single point]. For `COc1ccc(NC(=O)C2COc3ccccc3C2)cc1Cl` (stereo unspecified), the Potency was inconclusive [inhibitor, single point]. With `Cc1ccc(Cn2c(CN3CCC(C(=O)NCc4ccccc4C)CC3)cc3ccccc32)cc1` the Potency was “inactive”. With `CC(C)Cc1ccc(S(=O)(=O)N2CCC(c3ccncc3)CC2)cc1` the Potency was inconclusive [inhibitor, single point].
